Assay results as given in the supplement of paper PMC4466236.
Over roughly 33,000 sequences, “E-score (dimensionless, -0.5 to 0.5)” has its median near -0.058; the highest 2% begin near 0.35. The list shows a part of the results.

Tested on: MvaT
Experiment: PBM 8-mer E-score (mean of HK and ME arrays) (E-score (dimensionless, -0.5 to 0.5)); higher = stronger relative binding preference; most listed sequences are background and not binding sites
Experimental: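 Protein binding microarray: GST-tagged full-length MvaT (P. aeruginosa PAO1) bound to two universal double-stranded 60-mer arrays (ME and HK), each with a constant 25-mer primer and a variable 35-mer region covering all 8-mers. The 8-mer E-score (rank-based, range -0.5 to 0.5, >0.45 = specific binding) is the mean of the two arrays.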

Sequence	PBM 8-mer E-score
AACATCGA	0.151
CACAGCCG	-0.0685
AGTCCTTA	-0.0536
CCGTTAAA	0.254
CTCAGAAC	-0.17
ATACTGTC	0.0689
CTCCTGCA	-0.17
AGGCGCGC	-0.25
AGAAGTCA	-0.117
AGAGAACG	-0.171
ATGTTTAA	0.391
CGACAGAA	0.0376
ACAAAGGG	0.0162
CGGCTACG	-0.245
GAGTCTAA	0.0971
GCTTTCAA	-0.0697
CGTGCCAC	-0.209
CATCCGAG	-0.147
CGTGTTAA	0.21
GGCACACA	-0.0231
AGTAGGGA	0.0467
ATCTCCTC	-0.247
CTACGCTC	-0.112
GCTCTGTA	-0.178
AGTAAAAA	0.251

Sequence	PBM 8-mer E-score
AGCCTCAC	-0.158
CCGAATGA	-0.037
CGGCGCAC	-0.189
AATGAACC	-0.0199
ACCACCGT	-0.155
AATATTCC	0.375
ACGGGGGG	-0.169
AAATAATT	0.438
ATTTTGCG	0.195
GCGCCCCC	-0.301
CCGTCGAG	-0.198
AAGGGTTA	-0.0484
GGTGCTTA	-0.0393
ACTCTATC	-0.0304
ATACGTTC	0.0708
CAAATCGA	0.0462
ACAGTACG	0.0527
GATACGAA	0.094
GACGCCGC	-0.279
ACCCGGCA	-0.264
CCGCAATA	0.149
CAACAAAG	0.214
CGATGAGC	-0.259
AATAGTAC	0.207
ATCGGGCG	-0.0541

Sequence	PBM 8-mer E-score
ATGCGCAT	0.102
GCGTGAAC	-0.168
AAGGTGGC	0.0712
CTATGAAG	-0.0683
CGTTTGAA	0.0915
CGTACGAG	-0.177
CCCCGGGC	-0.329
CTGTGGAC	-0.212
CAAGGCAC	-0.14
GTAGTTCA	0.052
AAGCACTG	-0.186
TATAAGCA	0.317
GTACCTGA	-0.0333
AGATATTG	0.191
AACTCCTA	0.162
CCGTTTGC	-0.0761
GAGGACTC	-0.279
CCAGCTTA	-0.0676
AATATAAG	0.351
GGCAGAGA	-0.15
CACCGGCG	-0.229
AATACTGT	0.215
AACCTGAT	0.0816
AACTGCAT	-0.0229
TGACGCAA	-0.0302

Sequence	PBM 8-mer E-score
ACGAATCA	-0.0134
CGGCCATC	-0.331
AATATGCT	0.168
CAATCCTC	-0.18
AGTGGGGG	-0.209
AGAAGTTG	0.212
ATGGAGCC	-0.112
TAATGTGA	0.213
ATCAGGAT	-0.129
CTTCAAAG	0.0135
CAGTCCAC	-0.134
CCAGGTAG	-0.0622
CGACGTAG	-0.247
ATGTACAG	0.197
CAATTCGA	-0.0452
GCTTATCC	-0.143
ATCCGGTA	-0.0602
AGAATTTC	0.122
ATGTCCAG	-0.103
AGAGATGC	-0.101
ATCCGGAT	-0.0634
ACATCAAA	0.0331
CCAAAGGA	-0.213
ACCGTACG	-0.216
GGATCGAC	-0.378

Sequence	PBM 8-mer E-score
ACAACCCT	0.0272
ATTTGAAA	0.214
CTACCAAC	0.0568
ACTCAACA	0.0764
GGACCGCA	-0.309
CGTGAGGA	-0.241
AGACGCAG	-0.221
CTTACCGC	-0.0868
GCCAATGA	-0.169
GACGCTGC	-0.183
AGTTACCC	0.0919
ACTAAAGA	0.173
CAGTTTTA	0.196
ACCCTAGA	-0.125
CGTATGAC	-0.15
ATAATCAG	0.229
CATGGGTA	-0.0822
GATGAAGC	-0.136
GGCTCGAA	-0.186
TCTACCCA	0.0193
GAGGACCC	-0.181
GTCTGGTA	-0.11
ATTGACAA	0.263
TATACCGA	0.321
CCAGCAAA	-0.165

Sequence	PBM 8-mer E-score
AAATTTGC	0.134
AAATACTA	0.383
CACGTAAG	-0.118
CCGCTGTC	-0.107
AAGCCTGC	-0.198
CGAGTCCC	-0.298
ACATTGTC	0.116
AAACCCAC	0.0587
ACCTAGCG	-0.205
ATAGCTGG	-0.188
AGGGGCGG	-0.27
CAATAGGG	0.0309
CACGTGCG	-0.179
CACCTCCA	-0.174
CTTGTTGC	0.143
ATTAGCCG	0.0563
TAACAACA	0.223
ACCATAGC	-0.041
AAAAGCAC	0.055
ACACGTTA	0.0219
AAAAATTC	0.161
AAGCCAAG	-0.0756
CATCGATG	-0.0261
ATAGTACG	0.146
CAATGATC	0.048

Sequence	PBM 8-mer E-score
ATTGGACA	0.0416
CACACGGA	-0.149
GGGCTACC	-0.255
CTGCGACA	-0.24
CCTTACCG	-0.129
ATATTGTA	0.376
CTCAAGAG	-0.286
AGCTCTAA	-0.0435
AGCATGCA	-0.2
CACTAATA	0.323
AGACACCT	-0.162
ATAGTTAG	0.266
TAGGATGA	-0.13
GTATTGTA	0.248
ATGTAGAC	0.106
ACCGCAGC	-0.137
ACGCAGAA	-0.113
ACAATTGA	0.193
GTTTAAGA	0.246
CCCGCTCG	-0.242
AGTTTGAA	0.265
CTCTCAGC	-0.286
